Laboratory results published in PubChem BioAssay AID485294 (National Center for Advancing Translational Sciences (NCATS), 2010).
Among all 370,000 compounds or so, about 150 (0.041%) were called active. Inconclusive means that the source gave no clear call. Such entries were picked first, then a sample of the others. The call rests on the fitted dose curve; in most records, active means well fitted inhibition curve with a large enough effect; inconclusive means small, poorly fitted or top-dose-only effect; inactive means flat fitted curve, though single readings scatter. No potency is given beside an inconclusive call; the fits are too rough.

Each molecule was assayed against Beta-lactamase (Escherichia coli (strain K12)) (UniProt P00811) (assay: qHTS Inhibitors of AmpC Beta-Lactamase (assay with detergent)). Conditions: AmpC hydrolysis of nitrocefin, absorbance 480 nm, 0.01% Triton; series mostly up to 114 µM.
Chain of UniProt P00811 (P00811 whole entry, looked up): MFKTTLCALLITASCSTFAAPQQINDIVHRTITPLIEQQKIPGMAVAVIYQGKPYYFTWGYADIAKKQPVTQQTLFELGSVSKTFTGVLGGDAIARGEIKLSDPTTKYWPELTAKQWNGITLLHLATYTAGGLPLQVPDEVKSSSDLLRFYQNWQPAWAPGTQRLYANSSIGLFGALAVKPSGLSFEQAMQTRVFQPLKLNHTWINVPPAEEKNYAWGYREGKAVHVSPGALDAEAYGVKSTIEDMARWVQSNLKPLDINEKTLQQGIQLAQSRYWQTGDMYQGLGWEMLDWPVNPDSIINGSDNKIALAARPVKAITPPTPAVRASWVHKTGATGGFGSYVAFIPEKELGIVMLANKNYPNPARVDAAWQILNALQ
In short: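 20 mM phosphate pH 7.0 + 0.01% (detergent screen) or 0.0001% Triton X-100; 5.3 nM AmpC reagent; cpd preinc 15 min RT; nitrocefin (800 uM stock) to start; A480 q20 s × 4 min; Activity was normalised to no-enzyme and no-compound control wells.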
Further: nearly all actives have a fitted effect of over 25% in size.
Potency means the concentration at half of the fitted maximal effect; tags describe the fitted curve by direction and shape.

| SMILES | Potency |
| --- | --- |
| CCC/C(=C1/C(=O)CC(C)(C)C(C(=O)OC)C1=O)N1CCCC1 (stereo unspecified) | inconclusive [inhibitor, partial curve, poor fit] |
| COc1ccc(COC(=O)CN2C(=O)NC3(CCCC3)C2=O)cc1F | inconclusive [inhibitor, full curve] |
| CCOc1ccc(CNC(=O)c2ccc3c(c2)nc2n3CCCCC2)cc1 | inactive |
| O=C(/C=C/c1cccc([N+](=O)[O-])c1)N1CCN(c2ccccn2)CC1 | inconclusive [inhibitor, full curve] |
| CC(C)(C)NC(=O)c1nc2ccccc2s1 | inactive |
| Cc1ccc(OCCCCN2CCCCC2)cc1 | inactive |
| CSc1nsc(/C=C/Nc2ccc(C(=O)O)cc2)c1C#N | inconclusive [inhibitor, full curve] |
| COC(=O)[C@@H](NC(=O)Nc1ccccc1F)C(C)C | inconclusive [inhibitor, full curve, poor fit] |
| COc1ccc(/C=C/C(=O)Nc2nc(C)c(C(=O)N(C)C)s2)cc1OC | inconclusive [inhibitor, full curve] |
| O=[N+]([O-])c1ccc(C2=NN(c3ccccc3)C(c3ccco3)C2)cc1 (stereo unspecified) | inactive |
| COc1cc(/C=N/NC(=O)c2cccnc2)ccc1OCC(=O)Nc1ccc(C)cc1 | inconclusive [inhibitor, full curve, poor fit] |
| CC1(C)Nc2ccccc2N(CCC(=O)N2CCOCC2)C1=O | inconclusive [inhibitor, full curve] |
| COc1ccccc1CNC(=O)CSc1nc(=O)[nH]c2c1CCCC2 | inactive |
| Cc1ccccc1OCc1nc2ccccc2c(=O)n1/N=C/c1cn[nH]c1-c1ccc(Br)cc1 | inactive |
| O=C(O)CCC(=O)c1ccc2c(c1)CCCC2 | inconclusive [inhibitor, single point] |
| Cc1cc(C)cc(N(C(C)C(=O)N2CCCC2)S(C)(=O)=O)c1 (stereo unspecified) | inconclusive [inhibitor, partial curve, poor fit] |
| C=CCN(CC=C)C(=O)COC(=O)c1n[nH]c2ccccc12 | inconclusive [inhibitor, full curve, poor fit] |
| O=C(Nc1ccccc1C(F)(F)F)C(O)(c1ccccc1)C1CCCCC1 (stereo unspecified) | inactive |
| Cc1noc(NS(=O)(=O)c2ccc(N3CC(O)=C(c4ccccc4)C3=N)cc2)c1C | inconclusive [inhibitor, full curve] |
| c1cncc(-c2nc(NCc3ccc4c(c3)OCO4)c3ccccc3n2)c1 | inactive |
| Cc1[nH]c(=O)nc2c1CCC2 | inconclusive [inhibitor, full curve] |
| CCCCn1c2c(c(=N)c3c1CCC3)CCC2 | inactive |
| CN1C(=O)C(O)(CC(=O)/C=C/c2ccco2)c2ccccc21 (stereo unspecified) | inactive |
| CCCCC(c1nnnn1CC1CCCO1)N1CCN(Cc2ccccc2)CC1 (stereo unspecified) | inconclusive [inhibitor, single point] |

| SMILES | Potency |
| --- | --- |
| CC1(C)Cc2nc3sc4c(SCC(=O)NCc5ccco5)ncnc4c3cc2CO1 | inconclusive [inhibitor, single point] |
| O=C1CCCC2=C1C(c1ccc(Cl)cc1)n1c(s/c(=C\c3ccc4ccncc4c3)c1=O)=N2 (stereo unspecified) | inconclusive [inhibitor, single point] |
| CCOC(=O)C1CCCN(C(=O)CSc2ccccc2)C1 (stereo unspecified) | inconclusive [inhibitor, full curve, poor fit] |
| CSc1ccccc1NC(=O)CN(C)C(C)C(=O)NC(=O)NC1CCCCC1 (stereo unspecified) | inconclusive [inhibitor, partial curve, poor fit] |
| O=C(c1ccc(F)cc1)N1CCN(c2ccccn2)CC1 | inconclusive [inhibitor, full curve, poor fit] |
| COc1ccc(N2CCN(CCCn3c(=S)[nH]c4ncccc4c3=O)CC2)cc1 | inconclusive [inhibitor, full curve] |
| CCOC(=O)c1csc(N)n1 | inactive |
| Cc1ccc(NC(=O)c2ccc(Nc3c([N+](=O)[O-])cc([N+](=O)[O-])cc3[N+](=O)[O-])cc2)cc1 | inconclusive [inhibitor, partial curve, poor fit] |
| COc1ccc(OCC2c3cc(OC)c(OC)cc3CCN2C(=O)c2c(F)cccc2F)cc1 (stereo unspecified) | inactive |
| CCCCCCc1c(C)c2ccc(OCC(=O)N3CCC[C@H]3C(=O)O)c(C)c2oc1=O | inconclusive [inhibitor, full curve, poor fit] |
| O=C(CSc1nc(=O)n2ccccc2n1)NC1CCCCC1 | inconclusive [inhibitor, single point] |
| CCOc1ccccc1CN1CCNC(=O)C1CC(=O)N(C)Cc1cnccn1 (stereo unspecified) | inconclusive [inhibitor, full curve] |
| CCC(=O)c1cn(CC(=O)NCc2cccnc2)c2ccccc12 | inconclusive [inhibitor, full curve, poor fit] |
| Cc1ccc(C(=O)NCC(c2ccco2)S(=O)(=O)c2ccc(Cl)cc2)cc1C (stereo unspecified) | inactive |
| COc1ccc(C2SCC(=O)N2c2ccc(OC)cc2)cc1 (stereo unspecified) | inactive |
| C=CCn1c(=NC(=O)c2ccco2)sc2cc(C(=O)OCC)ccc21 | inactive |
| CC(C)c1ccc(NC(=O)c2cnc3sc(N4CCOCC4)nn3c2=O)cc1 | inactive |
| CCOC(=O)c1nnn(-c2ccccc2)c1C | inconclusive [inhibitor, single point] |
| O=C1CCc2cc(S(=O)(=O)N3CCCCC3)cc3c2N1CCC3 | inconclusive [inhibitor, full curve, poor fit] |
| CC(C)n1c(SC2CCOC2=O)nc2ccccc21 (stereo unspecified) | inconclusive [inhibitor, partial curve, poor fit] |
| Cc1c(C(=O)Nc2ccc(S(=O)(=O)N(C)C3CCN(C)CC3)cc2)oc2ccccc12 | inactive |
| CCCCC1(COC(=O)CCC(=O)O)C(=O)N(c2ccccc2)N(c2ccccc2)C1=O | inconclusive [inhibitor, full curve, poor fit] |
| CCSc1ccc2nnc(-c3cccs3)n2n1 | inconclusive [inhibitor, full curve, poor fit] |
| COCCn1c(C)cc(O)c(C(c2ccc(OC)cc2)N2CCN(c3ccccc3)CC2)c1=O (stereo unspecified) | inactive |

| SMILES | Potency |
| --- | --- |
| COc1ccc2occ(C(=O)c3ccc(N)cc3)c2c1 | inconclusive [inhibitor, full curve, poor fit] |
| O=C(Nc1nc2c(F)c(F)c(F)cc2s1)c1ccco1 | inconclusive [inhibitor, single point] |
| COc1ccc(CCNC(=O)COC(=O)c2cc(=O)c3ccccc3o2)cc1 | inconclusive [inhibitor, full curve, poor fit] |
| C=CCNC(=S)Nc1ccc(C(N)=O)cc1 | inconclusive [inhibitor, full curve, poor fit] |
| COc1cccc(NC(=O)Cc2csc(COc3cccc(C)c3)n2)c1 | inactive |
| CCOc1cccc(C(=O)NC(=S)Nc2cccnc2)c1 | inconclusive [inhibitor, full curve, poor fit] |
| Cc1ccc(Cn2ccc(NC(=O)c3cc(-c4ccc(Br)cc4)on3)n2)cc1 | inconclusive [inhibitor, full curve, poor fit] |
| O=[N+]([O-])c1cccc(S(=O)(=O)Nc2ccc(S(=O)(=O)NCC3CCCO3)cc2)c1 (stereo unspecified) | inconclusive [inhibitor, full curve, poor fit] |
| Cc1cn2c(=O)cc(COC(=O)c3ccc(NC(=O)C(C)Oc4ccccc4)cc3)nc2s1 (stereo unspecified) | inactive |
| Cc1cccc(C(=O)OC2CCOC2=O)c1O (stereo unspecified) | inconclusive [inhibitor, full curve, poor fit] |
| O=C(CC1Sc2ccccc2NC1=O)OCc1cc(=O)oc2cc(O)ccc12 (stereo unspecified) | inactive |
| CCn1nnc2cc(C(=O)Nc3ccc(OC)cc3)ccc21 | inactive |
| COc1ccc(-c2cc(C(=O)NCc3ccco3)c3ccccc3n2)c(OC)c1 | inconclusive [inhibitor, full curve] |
| CCOC(=O)c1cccc(NC(=O)CCn2nnc3ccccc32)c1 | inconclusive [inhibitor, single point] |
| CC(=O)Nc1cc(NC(C)=O)cc(C(=O)OC(C)C(=O)Nc2ccc(S(=O)(=O)N3CCCC3)cc2)c1 (stereo unspecified) | inactive |
| COc1cc2[nH]c(=O)n3nc(-c4ccccc4)nc3c2cc1OC | inconclusive [inhibitor, partial curve] |
| CC1(C)NC(=O)N(CC(O)CN2CCCC2)C1=O (stereo unspecified) | inconclusive [inhibitor, single point] |
| O=C(CCCOc1ccc(Cl)cc1Cl)NCCc1nnc2ccccn12 | inactive |
| Cc1cc(CN2CCN(CC(=O)Nc3cc(C(F)(F)F)ccc3-n3cncn3)CC2)no1 | inconclusive [inhibitor, full curve, poor fit] |
| O=C(CCC(=O)OCc1ccc(Cl)cc1)Nc1ccccc1 | inconclusive [inhibitor, full curve, poor fit] |
| CN1C(=O)C2(NCCc3c2[nH]c2ccccc32)c2ccccc21 (stereo unspecified) | inactive |
| S=C1NC2(CCCCC2)N=C1c1ccccc1 | inconclusive [inhibitor, partial curve] |
| O=C(Nc1cccc(Cl)c1)N1CCCC1 | inconclusive [inhibitor, full curve, poor fit] |
